Experimental data reported in PMC3605390, “Characterisation of ATP-Dependent Mur Ligases Involved in the Biogenesis of Cell Wall Peptidoglycan in Mycobacterium tuberculosis” (PLoS ONE, 2013).
These are yes or no findings as the source states them, for the method shown. In cells and extracts the contact can be indirect. Some entries that bind do so weakly or less than the wild type. Tags and fused reporters may be left off the sequences shown.

Experiments:
Assay in all cases: split reporter
[1] = target: T1, MurC synthetase (Rv2152c) of Mycobacterium tuberculosis, M-PFC fusion (Mycobacterium tuberculosis H37Rv) (UniProt P9WJL7)
T1 sequence: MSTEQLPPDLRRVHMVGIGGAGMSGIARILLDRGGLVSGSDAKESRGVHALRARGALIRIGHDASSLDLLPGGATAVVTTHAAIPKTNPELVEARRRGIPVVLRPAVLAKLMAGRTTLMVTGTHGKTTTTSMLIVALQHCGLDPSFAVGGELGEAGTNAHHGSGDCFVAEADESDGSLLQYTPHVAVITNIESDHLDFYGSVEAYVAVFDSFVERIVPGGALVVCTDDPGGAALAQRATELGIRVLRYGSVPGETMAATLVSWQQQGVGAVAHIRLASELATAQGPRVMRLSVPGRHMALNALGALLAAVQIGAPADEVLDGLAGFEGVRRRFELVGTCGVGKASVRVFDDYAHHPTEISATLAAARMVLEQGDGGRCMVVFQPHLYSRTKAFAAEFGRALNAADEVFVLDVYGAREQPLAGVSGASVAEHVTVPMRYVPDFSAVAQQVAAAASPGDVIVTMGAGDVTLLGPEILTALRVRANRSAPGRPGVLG

[2] = target: T2, MurD synthetase (Rv2155c) of Mycobacterium tuberculosis, M-PFC fusion (Mycobacterium tuberculosis H37Rv) (UniProt P9WJL5)
T2 sequence: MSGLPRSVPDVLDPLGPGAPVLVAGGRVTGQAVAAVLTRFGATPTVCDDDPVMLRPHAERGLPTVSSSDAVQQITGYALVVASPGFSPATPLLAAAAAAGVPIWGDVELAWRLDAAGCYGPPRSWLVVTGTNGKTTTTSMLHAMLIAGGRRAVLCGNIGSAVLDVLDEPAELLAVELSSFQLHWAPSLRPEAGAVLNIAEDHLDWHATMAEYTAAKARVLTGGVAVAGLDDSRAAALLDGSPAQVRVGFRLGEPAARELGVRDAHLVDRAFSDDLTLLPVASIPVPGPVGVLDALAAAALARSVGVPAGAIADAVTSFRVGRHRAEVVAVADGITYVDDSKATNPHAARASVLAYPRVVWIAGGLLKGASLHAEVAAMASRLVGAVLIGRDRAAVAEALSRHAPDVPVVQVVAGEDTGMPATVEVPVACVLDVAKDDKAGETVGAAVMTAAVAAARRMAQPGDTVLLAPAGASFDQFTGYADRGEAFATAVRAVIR

[3] = target: T3, MurE synthetase (Rv2158c) of Mycobacterium tuberculosis, M-PFC fusion (Mycobacterium tuberculosis H37Rv) (UniProt P9WJL3)
T3 sequence: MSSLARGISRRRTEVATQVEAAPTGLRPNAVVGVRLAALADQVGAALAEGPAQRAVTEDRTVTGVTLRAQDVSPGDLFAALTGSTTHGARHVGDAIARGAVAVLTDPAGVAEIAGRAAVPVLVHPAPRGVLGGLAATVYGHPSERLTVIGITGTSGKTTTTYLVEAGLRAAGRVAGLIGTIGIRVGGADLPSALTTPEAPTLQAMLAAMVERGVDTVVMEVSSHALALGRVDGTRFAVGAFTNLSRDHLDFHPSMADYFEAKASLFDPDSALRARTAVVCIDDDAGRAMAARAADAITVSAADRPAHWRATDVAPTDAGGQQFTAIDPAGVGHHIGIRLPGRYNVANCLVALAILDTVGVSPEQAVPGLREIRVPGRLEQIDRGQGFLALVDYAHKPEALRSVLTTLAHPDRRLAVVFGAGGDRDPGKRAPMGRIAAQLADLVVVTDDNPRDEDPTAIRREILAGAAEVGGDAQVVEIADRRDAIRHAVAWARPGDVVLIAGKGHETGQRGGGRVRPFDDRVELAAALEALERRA

[4] = target: T4, MurF synthetase (Rv2157c) of Mycobacterium tuberculosis, M-PFC fusion (Mycobacterium tuberculosis H37Rv) (UniProt P9WJL1)
T4 sequence: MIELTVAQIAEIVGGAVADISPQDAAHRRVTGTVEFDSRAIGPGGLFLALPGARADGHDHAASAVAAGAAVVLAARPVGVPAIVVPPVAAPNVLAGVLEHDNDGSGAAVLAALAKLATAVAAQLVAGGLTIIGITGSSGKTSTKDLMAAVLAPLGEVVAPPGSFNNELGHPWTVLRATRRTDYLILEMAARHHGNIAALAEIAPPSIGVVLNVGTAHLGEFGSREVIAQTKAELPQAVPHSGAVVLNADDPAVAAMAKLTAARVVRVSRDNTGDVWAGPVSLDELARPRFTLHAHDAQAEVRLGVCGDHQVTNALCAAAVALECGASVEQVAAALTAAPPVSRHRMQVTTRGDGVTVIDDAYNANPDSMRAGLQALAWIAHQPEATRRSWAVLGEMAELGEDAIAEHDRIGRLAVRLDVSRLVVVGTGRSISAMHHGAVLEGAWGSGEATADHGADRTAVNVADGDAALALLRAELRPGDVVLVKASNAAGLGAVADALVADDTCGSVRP

B1: D-alanine:D-alanine ligase (DdlA, Rv2981c) of Mycobacterium tuberculosis, M-PFC fusion (enzyme, UniProt P9WP31 1-373)
chain: MSANDRRDRRVRVAVVFGGRSNEHAISCVSAGSILRNLDSRRFDVIAVGITPAGSWVLTDANPDALTITNRELPQVKSGSGTELALPADPRRGGQLVSLPPGAGEVLESVDVVFPVLHGPYGEDGTIQGLLELAGVPYVGAGVLASAVGMDKEFTKKLLAADGLPVGAYAVLRPPRSTLHRQECERLGLPVFVKPARGGSSIGVSRVSSWDQLPAAVARARRHDPKVIVEAAISGRELECGVLEMPDGTLEASTLGEIRVAGVRGREDSFYDFATKYLDDAAELDVPAKVDDQVAEAIRQLAIRAFAAIDCRGLARVDFFLTDDGPVINEINTMPGFTTISMYPRMWAASGVDYPTLLATMIETTLARGVGLH
For B1, the binding [1] was “no binding”, the binding [2] was “no binding” and the binding [3] was “no binding”. The binding [4] was “binds”.
